Displacement data for 113 compounds are collected here from PubChem BioAssay AID1240 (Sanford-Burnham Center for Chemical Genomics, 2008).

SMILES strings stand for the structures. The whole screen tested about 50,000 compounds, of which about 800 (1.6%) showed an effect of 50% or more. The list shows a part of the results.

This test deals with Bcl-2-like protein 10 (Homo sapiens) (UniProt Q9HD36). Kind of test: Phenotype converters, Bcl-B/TR3 peptide binding displacement, primary biochemical FP (AID 1240).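 Further: 0% = Bcl-B with tracer peptide and DMSO and 100% = tracer peptide lacking Bcl-B.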 The following applies: GST-Bcl-B / FITC-TR3 peptide fluorescence polarization; stronger effect = higher value; compound at 3.75 mg/L.
UniProt Q9HD36, sequence (Q9HD36 whole entry, looked up): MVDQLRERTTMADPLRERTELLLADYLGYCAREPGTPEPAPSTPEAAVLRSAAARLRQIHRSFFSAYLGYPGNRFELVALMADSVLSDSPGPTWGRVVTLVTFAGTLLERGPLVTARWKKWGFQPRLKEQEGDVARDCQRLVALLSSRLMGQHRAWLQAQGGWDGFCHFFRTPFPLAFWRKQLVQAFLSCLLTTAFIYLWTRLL
On to `COc1ccc(C(c2c(O)c3ccccc3oc2=O)c2c(O)c3ccccc3oc2=O)cc1COc1ccccn1`, for which the displacement was determined as 18.3%.

In the case of `O=C(COc1ccccc1)Nc1ccc(Cl)cc1C(=O)c1ccccc1`, the displacement is -1.6%. The value for `CC12CCC(CC1=O)C(C)(C)N2` (stereo not drawn) was 4.9%; that for `O=C1c2ccccc2C(=O)N1Cc1nc2ccccc2c(=O)n1-c1ccncc1` was 2.7%; that for `CC(C)c1cccc(C(C)C)c1OCCN1CCCCC1` was 7.8%.

Regarding `CCC(=O)c1ccc(N2CCNCC2)c(F)c1`, the displacement was -14.1%. As for `Oc1ccc(Br)cc1CN1CCN(Cc2cccc(F)c2)CC1`, the figure is 4%; as for `CCOC(=O)c1c(C)n(CCOC)c2ccc(O)cc12`, -3%. `CCOc1ccc(-n2c(-c3cccs3)nc3ccccc3c2=O)cc1`: the displacement is -4.2%. Turning to `Cc1ccc(C(=O)N2CCN(/C(N)=N/[N+](=O)[O-])CC2)cc1[N+](=O)[O-]`, the displacement was determined as 5.9%. The value for `CC1CCC(NCCc2ccc3c(c2)OCO3)CC1` (stereo not drawn) was -8.4%. As for `Cc1ccc(-n2c(-c3ccco3)nc3ccccc3c2=O)c(C)c1`, the figure is -7.6%; as for `CC(C)N1CCN(Cc2cc(Br)ccc2O)CC1`, 10.7%.

With `O=C1NC(=O)C(=Cc2ccc(-c3ccc([N+](=O)[O-])cc3Cl)o2)C(=O)N1`, the displacement was 66.8%. As for `C=CCN1C(=O)/C(=C\c2cc(Cl)c(O)c(OC)c2)C(=O)NC1=S`, the figure is 3%; as for `CCOC(=O)c1c(C)n(Cc2ccccc2Cl)c2ccc(O)cc12`, 14.6%; as for `O=C1Nc2ccccc2C1=Cc1nc2ccccc2c(=O)n1-c1ccc(O)cc1`, 6.5%. As for `O=[N+]([O-])N=C1NCN(c2cccc([N+](=O)[O-])c2)CN1`, the figure is 4.2%; as for `O=[N+]([O-])c1ccc(N2CCCC2)c(F)c1Br`, -0.5%.

With `COc1ccc(Br)cc1CN1CCN(C(=O)COc2ccc3ccccc3c2)CC1`, the displacement was found to be 11.6%. Take `CCOc1ccccc1CN(CCc1ccc2c(c1)OCO2)Cc1ccccc1OC`: the displacement was -9.5%. Take `O=C(Nc1ccc(Cl)cc1C(=O)c1ccccc1)c1ccc(S(=O)(=O)N2CCOCC2)cc1`: the displacement is -12.7%. For `CCOc1cc(C=C2C(=O)NC(=O)NC2=O)cc(Br)c1OCCOc1ccccc1C`, the displacement came out at 8.7%. Consider `O=C(N/N=C1/CN2CCC1CC2)c1cc2ccccc2cc1O`, for which the displacement was -38.2%. As for `COc1cccc(C(c2c(O)c3ccccc3oc2=O)c2c(O)c3ccccc3oc2=O)c1`, the figure is 13.2%; as for `Cc1cccc(-n2c(CN3C(=O)c4ccccc4C3=O)nc3ccccc3c2=O)c1`, 1.3%. Take `COc1cc(CN2CCN(C(C)C)CC2)cc(OC)c1OC`: the displacement is -7.2%. Regarding `CC12CCC3C(CC=C4CC(O)CCC43C)C1C/C(=C\c1ccc([N+](=O)[O-])cc1)C2=O` (stereo not drawn), the displacement was 8.2%. `Cc1ccccc1NC1=NCC(C)S1` (stereo not drawn): the displacement was -0.3%. As for `Cc1cc(C)cc(N2C(=O)NC(=O)/C(=C\C=C\c3ccccc3)C2=O)c1`, the figure is 42.9%; as for `COc1ccccc1OCC(=O)N1CCN(C)CC1`, 15.9%; as for `OC1C2CCCC1C(N1CCCCC1)CC2` (stereo not drawn), 12.9%. As to `CC(C)c1ccc(N2C(=O)NC(=O)/C(=C/C=C/c3ccco3)C2=O)cc1`, the displacement amounted to 8.5%.

Consider `CC(Cc1ccccc1)NC(=O)/C=C/c1ccccc1` (stereo not drawn), for which the displacement is -10%. As for `O=C(Nc1cccc2ccccc12)NC1CN2CCC1CC2` (stereo not drawn), the figure is 13.2%.

For the compound `CCc1ccc(CN2CCN(C(=O)COc3ccc(Cl)cc3)CC2)cc1`, the displacement stood at 7.7%. `Cn1c(O)c(C(c2ccncc2)c2c(O)n(C)c(=S)n(C)c2=O)c(=O)n(C)c1=S`: the displacement is 11.7%. As for `Cc1ccc(C(=O)Nc2ccc(N/C(N)=N/[N+](=O)[O-])cc2)cc1`, the displacement was found to be 8.7%. As for `Cc1cc(O)c2c3c(c(=O)oc2c1)CCCC3`, the figure is 13%; as for `Cc1cccc(N2C(=O)NC(=O)/C(=C/c3ccc(-c4ccc([N+](=O)[O-])cc4C)o3)C2=O)c1`, 76.7%; as for `CC(NC1CCCCC1)C(O)C12CC3CC(CC(C3)C1)C2` (stereo not drawn), -12.1%.

With `Cc1cccc(-n2c(/C=C\c3ccc(Br)cc3)nc3ccccc3c2=O)c1`, the displacement was determined as 18.6%. As to `COc1ccc(OC)c(CNCCc2ccc([N+](=O)[O-])cc2)c1`, the displacement turned out to be 16.4%.

For the compound `COc1cc(/C=C/[N+](=O)[O-])ccc1OC(C)=O`, the displacement was 5.3%. With `CCCCn1c(=O)c(C(=O)Nc2ncccc2O)c(O)c2ccccc21`, the displacement came out at 2.6%.

For the compound `O=C1NC(=O)C(=Cc2cccc(OCc3ccccc3)c2)C(=O)N1`, the displacement was determined as 6.9%. The value for `CC(C)c1cccc(C(C)C)c1OCCn1ccnc1` was -8.4%. The value for `COc1cccc(/C=C2/C(=O)NC(=O)N(c3cccc(C)c3)C2=O)c1O` was 3.1%; that for `COc1ccccc1OCCn1cc(C=C2C(=O)NC(=O)NC2=O)c2ccccc21` was 38.7%. As for `O=C(CN1CCOCC1)Nc1ccc(Cl)cc1C(=O)c1ccccc1`, the figure is 0.4%; as for `CCC1(c2ccccc2)C(=O)NC(=O)N(C(=O)c2ccccc2Cl)C1=O` (stereo not drawn), 3.9%; as for `CCCn1c(C)c(C(=O)OCC)c2cc(O)ccc21`, 0.8%. As for `Cc1cccc(C(=O)Nc2ccc(Cl)cc2C(=O)c2ccccc2)c1`, the displacement was -12.2%. The value for `COCCOC(=O)C1CN1C(C)C(=O)OC` (stereo not drawn) was -8.9%; that for `Fc1ccc(CNCCc2c[nH]c3ccccc23)cc1` was 10.4%.

For `O=C1/C(=C/c2ccc(O)cc2)N2CCC1CC2`, the displacement came to 13.1%.

For the compound `CN1C(=O)C(=Cc2cccn2-c2cccc([N+](=O)[O-])c2)C(=O)N(C)C1=O`, the displacement is 27.3%.

Regarding `Cc1c(C)[n+](=O)c2cc(N3CCN(C)CC3)c(Cl)cc2n1[O-]`, the displacement was 5.3%. The value for `O=C1CC(=O)N(c2ccc(Cl)c(Cl)c2)C(=S)N1` was 0.8%; that for `CCCCCn1c(=O)c(C(=O)Nc2ccc(C)cc2C)c(O)c2ccccc21` was -3.6%. The value for `COc1ccc(O)c(CN2CCN(Cc3ccccc3Br)CC2)c1` was -5.1%; that for `Cc1ccccc1-n1c(/C=C/c2ccc(Br)cc2)nc2ccccc2c1=O` was -2.8%. As for `COc1cc(CNCCc2ccc(Cl)cc2)cc(OC)c1OC`, the displacement came out at 12%. The value for `CCN1CCC2(CC1)CC(C)c1cccc(C)c1N2` (stereo not drawn) was 12.7%. In the case of `COc1ccc(N2C(=O)NC(=O)/C(=C/c3ccc(SC)cc3)C2=O)cc1`, the displacement was -9.4%. Consider `O=C1NC(=O)C(=Cc2ccccc2)C(=O)N1`, for which the displacement was -4.2%.

On to `CC(C)(NO)C(=O)c1ccc(F)cc1`, for which the displacement came to 13%. Regarding `O=C1NC(=O)N(c2ccc(Cl)cc2)C(=O)/C1=C/c1ccccc1`, the displacement turned out to be 4.7%. The value for `CCOc1ccc(NC(=S)NC2CN3CCC2CC3)cc1` (stereo not drawn) was 18.6%. Turning to `COc1cc(/C=C\c2nc3ccccc3c(=O)n2-c2ccc(O)cc2)ccc1O`, the displacement was -24.7%. As for `CC(C)N1CCN(Cc2ccc(Br)cc2)CC1`, the figure is -0.5%.

For the compound `O=C(N1CCN(c2ccccc2)CC1)C(O)(c1ccccc1)c1ccccc1`, the displacement is -0.4%. As for `CCC(CC)C1C(C#N)=C(N)Oc2c1c(=O)oc1ccccc21` (stereo not drawn), the figure is -15.4%.

Take `Cc1cc(OCc2ccc([N+](=O)[O-])cc2)c2c3c(c(=O)oc2c1)CCCC3`: the displacement was -3.3%.

Regarding `Cc1c(C=O)c2ccccc2n1Cc1ccccc1Cl`, the displacement is -10.6%. The value for `O=C(COc1ccc(Cl)cc1)N1CCN(Cc2ccccc2)CC1` was -3.3%; that for `CCC1(CC)C(=O)NC(=O)N(C(=O)c2ccc(Br)cc2)C1=O` was 9.2%; that for `CC1(C)OC(c2ccccc2)=C/C(=C/C=C2C(=O)NC(=O)NC2=O)O1` was -0.9%.

With `O=[N+]([O-])/N=C1/NCN(Cc2ccccc2)CN1Cc1ccccc1`, the displacement is -4.2%.

As for `CN(C)c1ccc(C=C2C(=O)NC(=S)N(c3ccccc3F)C2=O)cc1`, the displacement is 6.7%. The value for `Cn1c(O)c(C=NC2CC(C)(C)NC(C)(C)C2)c(=O)n(C)c1=O` was -2.9%.

Consider `COc1ccc(-c2nc3ccccc3c(=O)n2-c2ccccn2)cc1`, for which the displacement was found to be 3.2%.

Take `O=C1c2ccccc2-c2onc3c(Br)cc(N4CC4)c1c23`: the displacement came to 178%. As for `O=C(COc1ccc2ccccc2c1)N1CCN(Cc2ccc(Br)cc2)CC1`, the figure is -0.6%; as for `Cc1nc2ccccc2c(=O)n1-c1ccc([N+](=O)[O-])cc1`, 11.9%. The value for `COc1ccc(OC)c(N2C(=O)CC(=O)NC2=O)c1` was -5.1%; that for `O=c1oc2ccccc2c(O)c1C(c1ccccc1F)c1c(O)c2ccccc2oc1=O` was 9.2%; that for `O=C(Nc1ccc(Br)cc1C(=O)c1ccccc1)c1ccc([N+](=O)[O-])cc1` was 7.9%. The value for `COc1cc(OC)c(OC)cc1CN1CCNCC1` was -4.5%; that for `O=C(N1CCN(c2ccccc2Cl)CC1)C(O)(c1ccccc1)c1ccccc1` was -0.3%; that for `CC(C)COc1ccc(Cc2c(O)[nH]c(=S)[nH]c2=O)cc1` was -13.2%. As for `CCC1(Cc2ccccc2)C(=O)NC(=O)NC1=O`, the displacement is 4.4%.

Consider `C=CCc1cc(/C=C2\C(=O)NC(=O)N(c3cc(C)cc(C)c3)C2=O)cc(OC)c1O`, for which the displacement is -5.3%.

For `Cc1cc(OCc2ccccc2)c2c3c(c(=O)oc2c1)CCC3`, the displacement was found to be 7.8%. `CC(=O)c1cc(F)c(N2CCN(C)CC2)cc1C`: the displacement was -5.1%.

In the case of `CCc1c(C)sc(NC(=O)C23CC4CC(CC(C4)C2)C3)c1C(=O)OC`, the displacement amounted to 7.9%.

In the case of `CCC(C)c1ccc(OCCOc2ccc(C=C3C(=O)NC(=O)NC3=O)cc2)cc1` (stereo not drawn), the displacement amounted to 6.9%. The value for `Cc1cccc(-n2c(-c3cccs3)nc3ccccc3c2=O)c1` was 1%; that for `O=c1oc2ccccc2c2c1C(c1ccccc1)c1c(c3ccccc3oc1=O)O2` was 7.4%. As to `CCCCC1C(=O)NC(=S)N(c2ccccc2)C1=O` (stereo not drawn), the displacement is -4.2%.

Regarding `CN1CCN(c2nc3nc(N)[nH]c(=O)c3[nH]2)CC1`, the displacement is -8.4%. For the compound `CN=C(C)c1c(O)n(C)c(=O)n(C)c1=O`, the displacement is 1.4%.

For `Cc1cccc(-n2c(-c3ccc(Cl)cc3Cl)nc3ccccc3c2=O)n1`, the displacement is -10.9%.

Take `C=CCOc1ccc(/C=C2\C(=O)NC(=O)N(CC=C)C2=O)cc1OC`: the displacement turned out to be 10.9%. Regarding `c1ccc2c(CCNC3CC4CCC3C4)c[nH]c2c1` (stereo not drawn), the displacement stood at 7.4%. The value for `c1cncc(CN2CCN(C3CC4CCC3C4)CC2)c1` (stereo not drawn) was -3.2%; that for `O=[N+]([O-])c1ccc2nc(N3CCNCC3)sc2c1` was 10.1%. For the compound `N#CC1=C(N)Oc2c(c(=O)oc3ccccc23)C1c1cccc([N+](=O)[O-])c1` (stereo not drawn), the displacement was 0.9%.

Turning to `COc1ccccc1CCN(Cc1ccco1)Cc1ccco1`, the displacement is -1.6%. On to `Cc1cc(C=C2C(=O)NC(=S)NC2=O)c(C)n1-c1ccccc1`, for which the displacement was found to be 104%. Take `O=C(N1CCN(c2ccccn2)CC1)C(O)(c1ccccc1)c1ccccc1`: the displacement is 2.1%.

`Cc1ccc(-c2nc3ccccc3c(=O)n2-c2ccccn2)cc1`: the displacement is -8.7%. The value for `Cc1ccccc1CN1CCN(Cc2ccc(F)cc2)CC1` was -2.9%.
